Results reported in PubChem BioAssay AID1347120 (National Center for Advancing Translational Sciences (NCATS), 2019).
About 930 (0.24%) of roughly 390,000 compounds were called active. The inconclusive results got no clear call from the source; some entries with a clear call stand among them for comparison. Calls come from the whole dose curve; as a rule, active = well fitted activation curve with a large enough effect; inconclusive = small, poorly fitted or top-dose-only effect; inactive = no such curve, though single readings can be large or run the other way. Potencies beside an inconclusive call are fits to weak or partial responses and may not hold up.

test: qHTS for Suppressors of FUS Proteinopathy: Primary screen using FUS-linked yeast assay; note: nearly all actives have a fitted effect of over 55% in size;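 for growth rescue (activation): plate controls were DMSO vehicle for no effect and reference control for full effect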; settings: S. cerevisiae FUS-expressing, OD600, 24 h; Potency: growth rescue; growth rescue (activation): at 76.6 µM (top of the series)
Method in brief: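 Restored growth of FUS-toxic S. cerevisiae, read as 600 nm absorbance after 24 h at 30C in galactose medium (starting OD 0.005). Controls CP55940 and DMSO.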
Potency is the fitted concentration of half-maximal effect; tags give direction and shape of the fitted curve.

**Q.** With `COc1ccccc1C(=O)Nc1cccc(C(=O)OCc2cc(=O)n3nc(C)sc3n2)c1` as the compound, how does the “growth rescue (activation)” value read?
**A.** inactive: -3.66%

**Q.** Which “growth rescue (activation)” value does the source give for `CCOC(=O)N1CCN(C(=O)C[C@@H]2C(=O)N(Cc3ccc(OC)cc3)/C3=C/CCCCC[C@@]32C(=O)OCC)CC1` here?
**A.** inactive: 41.3%

**Q.** Which Potency does the source give for `Cc1cccc(C)c1NS(=O)(=O)c1ccc(NS(=O)(=O)c2ccc3c(c2)OCCO3)cc1` here?
**A.** inconclusive: 31.6 µM [activator, partial curve, poor fit]

**Q.** For `Cc1ccc(-c2nnc(Nc3ccccc3)c3ccccc23)cc1S(=O)(=O)NCc1nc2ccccc2[nH]1`, which Potency is on record?
**A.** inconclusive: 31.6 µM [activator, single point]

**Q.** Which Potency does the source give for `CC(C)(N[C@@H](Cc1ccccc1)C(=O)NCCc1c[nH]c2ccccc12)C(=O)NC1CCCCC1` here?
**A.** inconclusive: 14.1 µM [activator, partial curve]

**Q.** With `O=C(C1CCC(=O)N1Cc1ccccc1Cl)N1CCN(c2cccc(Cl)c2)CC1` (centres undefined) as the compound, how does the Potency read?
**A.** inconclusive: 50.1 µM [activator, single point]

**Q.** For `O=C1NNC(c2ccccc2)=N/C1=C\c1ccco1`, which Potency is on record?
**A.** inconclusive: 39.8 µM [activator, partial curve, poor fit]

**Q.** For `Cc1cc(C)n(-c2nc(NCC(C)O)c3c4c(sc3n2)COC(C)(C)C4)n1` (centres undefined), which “growth rescue (activation)” value is on record?
**A.** inactive: 20.6%

**Q.** With `CCCCC[C@@H](C)N1C[C@@H](COCc2ccccc2)Oc2cc(N3CC[C@@H](O)C3)ccc2S1(=O)=O` as the compound, how does the Potency read?
**A.** inconclusive: 31.6 µM [activator, single point]

**Q.** Which Potency does the source give for `C[C@@H]1CN([C@@H](C)CO)C(=O)Cc2cc(NC(=O)C3CCCCC3)ccc2O[C@H]1CN(C)S(=O)(=O)c1ccccc1` here?
**A.** inconclusive: 14.1 µM [activator, partial curve, poor fit]

**Q.** With `CCOc1ccc(-n2c(SCC(=O)Nc3ccc(S(=O)(=O)Nc4nccs4)cc3)nnc2-c2ccccc2)cc1` as the compound, how does the Potency read?
**A.** inconclusive: 17.8 µM [activator, partial curve, poor fit]

**Q.** With `COc1ccc(-c2ccc(CCC(=O)O)n2-c2ccccc2C(F)(F)F)cc1` as the compound, how does the Potency read?
**A.** inconclusive: 35.5 µM [activator, single point]

**Q.** With `COc1ccc(NS(=O)(=O)c2cc([N+](=O)[O-])ccc2NN=Cc2ccccc2OCC(=O)O)cc1` as the compound, how does the Potency read?
**A.** inconclusive: 35.5 µM [activator, partial curve, poor fit]

**Q.** With `COc1cc(CN(C(=O)c2ccc(C)cc2)C2CCS(=O)(=O)C2)cc(OC)c1OC` (centres undefined) as the compound, how does the Potency read?
**A.** inconclusive: 12.6 µM [activator, partial curve, poor fit]

**Q.** For `CCOc1ccc(NC(=O)CN(C)S(=O)(=O)c2ccc(-c3ccc(=O)[nH]n3)s2)cc1`, which Potency is on record?
**A.** inconclusive: 22.4 µM [activator, partial curve, poor fit]

**Q.** With `CC(NCC(=O)NC(=O)NC1CCCC1)c1ccc(Cl)cc1Cl` (centres undefined) as the compound, how does the “growth rescue (activation)” value read?
**A.** inactive: 22.1%

**Q.** Which Potency does the source give for `O=C(N/N=C/c1ccc(N2CCOCC2)cc1)c1ccc(NS(=O)(=O)c2cccs2)cc1` here?
**A.** inconclusive: 44.7 µM [activator, single point]

**Q.** Which Potency does the source give for `COC(=O)[C@]12CCCCC=C1N(Cc1ccc(Cl)cc1Cl)C(=O)[C@H](CC(=O)NCc1ccc(OC)c(OC)c1)C2` here?
**A.** inconclusive: 44.7 µM [activator, single point]

**Q.** With `CCOC(=O)[C@]12CCCCC/C=C\1N(Cc1ccc(OC)cc1)C(=O)[C@H]2CC(=O)NCc1cccs1` as the compound, how does the Potency read?
**A.** inconclusive: 28.2 µM [activator, partial curve]

**Q.** With `O=C(CC12CC3CC(CC(C3)C1)C2)Nc1cccc2ncccc12` as the compound, how does the Potency read?
**A.** inconclusive: 39.8 µM [activator, single point]

**Q.** Which “growth rescue (activation)” value does the source give for `O=C(COc1ccc(Br)cc1Br)NC(=S)N1CCCc2ccccc21` here?
**A.** inactive: 25.2%

**Q.** Which Potency does the source give for `Cn1cccc1Cc1nnc(SCC(=O)N2CCc3ccccc32)n1CCc1ccccc1` here?
**A.** inconclusive: 17.8 µM [activator, single point]

**Q.** For `NC(=O)c1ccc(N2CCN(c3ccccc3O)CC2)c([N+](=O)[O-])c1`, which “growth rescue (activation)” value is on record?
**A.** inactive: 23.4%

**Q.** With `CCOC(=O)C1=CN(Cc2ccco2)S(=O)(=O)N(C)C1c1ccc2ccccc2c1` (centres undefined) as the compound, how does the Potency read?
**A.** inconclusive: 35.5 µM [activator, single point]

**Q.** With `CCCCOCCCNC(=O)C[C@H]1C[C@@]2(C(=O)OC)C(=C[C@H](C3CCCC3)O[C@@H]2C)N(Cc2ccc(Cl)cc2Cl)C1=O` as the compound, how does the Potency read?
**A.** inconclusive: 3.55 µM [activator, full curve]

**Q.** For `CCOC(=O)[C@@]12CCCC=C1N(CCc1ccc(Cl)cc1)C(=O)[C@H]2CC(=O)NCc1cccc2ccccc12`, which Potency is on record?
**A.** inconclusive: 25.1 µM [activator, single point]

**Q.** With `CCc1ccc(NC(=O)CSc2nc3c([nH]c4ccccc43)c(=O)n2C)cc1` as the compound, how does the “growth rescue (activation)” value read?
**A.** inactive: -13.3%

**Q.** For `COc1ccc(C(=O)Nc2ccccc2C(=O)NC(Cc2ccc(O)cc2)C(=O)NNC(=O)c2ccncc2)cc1` (centres undefined), which Potency is on record?
**A.** inconclusive: 25.1 µM [activator, single point]

**Q.** Which Potency does the source give for `COc1ccc(-c2ccc(C#N)c(SCC(=O)NCc3ccco3)n2)cc1OC` here?
**A.** inconclusive: 7.94 µM [activator, partial curve]

**Q.** Which “growth rescue (activation)” value does the source give for `O=C(c1ccco1)N1N=C(c2ccccc2O)CC1c1cccs1` (centres undefined) here?
**A.** inactive: -32%

**Q.** With `CCc1cc2c(NCCC(=O)O)nc(C)nc2s1` as the compound, how does the “growth rescue (activation)” value read?
**A.** inactive: -5.65%

**Q.** Which Potency does the source give for `c1ccc2[nH]c(CN3CCOCC3)nc2c1` here?
**A.** inconclusive: 2.82 µM [activator, full curve, poor fit]

**Q.** With `COc1cc(/C=N/NC(=O)/C(=C\c2ccc([N+](=O)[O-])cc2)NC(=O)c2ccccc2)cc(OC)c1O` as the compound, how does the Potency read?
**A.** inconclusive: 35.5 µM [activator, single point]

**Q.** With `O=C1CC(N2CCN(c3ccc(Cl)cc3)CC2)C(=O)N1c1ccccc1` (centres undefined) as the compound, how does the “growth rescue (activation)” value read?
**A.** inactive: -20.6%

**Q.** With `COc1ccc(CCNC(=O)c2c(Nc3ccccc3C)sc(C(=O)c3ccccc3)c2N)cc1OC` as the compound, how does the Potency read?
**A.** inconclusive: 14.1 µM [activator, partial curve, poor fit]

**Q.** For `COC(=O)c1cc(C(=O)OCC(=O)Nc2ccccc2OC(F)F)cc([N+](=O)[O-])c1`, which “growth rescue (activation)” value is on record?
**A.** inactive: 14%

**Q.** With `COc1ccc(-c2nn(C)c3sc(C(=O)Nc4cc(OC)c(OC)c(OC)c4)cc23)cc1OC` as the compound, how does the Potency read?
**A.** inconclusive: 25.1 µM [activator, partial curve, poor fit]

**Q.** Which Potency does the source give for `CC(C)(C)c1ccc(C(=O)N2CC(=O)Nc3ccc(F)cc3C2c2ccc(F)cc2)cc1` (centres undefined) here?
**A.** inconclusive: 25.1 µM [activator, single point]

**Q.** For `COc1ccc(C2=NN(C(=O)CSC3=NN4CCCC(=O)N=C4S3)C(c3cccc(OC)c3OC)C2)cc1` (centres undefined), which Potency is on record?
**A.** inconclusive: 28.2 µM [activator, single point]

**Q.** For `CCOC(=O)C1=C(c2ccccc2)N=c2s/c(=C\c3cc(OC)c(OC)c(OC)c3)c(=O)n2C1c1cccs1` (centres undefined), which Potency is on record?
**A.** inconclusive: 10 µM [activator, partial curve, poor fit]

**Q.** With `Cc1cccc(CN2CCN(C3CN(Cc4cn(Cc5cccc(C(F)(F)F)c5)nn4)S(=O)(=O)C3)CC2)c1` (centres undefined) as the compound, how does the “growth rescue (activation)” value read?
**A.** inactive: 6.63%

**Q.** With `O=S(=O)(NCCOCC(F)(F)C(F)F)c1ccc2oc3ccccc3c2c1` as the compound, how does the Potency read?
**A.** inconclusive: 12.6 µM [activator, partial curve]

**Q.** Which Potency does the source give for `Cc1cc2nc(-c3ccc(SCc4ccc(C#N)cc4)nc3)[nH]c2cc1C` here?
**A.** inconclusive: 28.2 µM [activator, partial curve, poor fit]

**Q.** With `CCCCCCCCCCCCN1[C@@H](CC(=O)O)c2cc(F)ccc2S1(=O)=O` as the compound, how does the Potency read?
**A.** inconclusive: 31.6 µM [activator, single point]

**Q.** Which “growth rescue (activation)” value does the source give for `Fc1ccc(-c2nc3ccc(Cl)cn3c2Cc2cccc(Cl)c2)cc1` here?
**A.** inactive: 39.6%

**Q.** For `COC(=O)C1=C(C)N(Cc2ccccc2)C(=S)N[C@H]1c1ccc(Br)cc1`, which Potency is on record?
**A.** inconclusive: 25.1 µM [activator, single point]

**Q.** Which Potency does the source give for `COc1ccc(NC(=O)CSC2=Nc3ccccc3C3=NC(Cc4ccccc4)C(=O)N23)cc1Cl` (centres undefined) here?
**A.** inconclusive: 28.2 µM [activator, single point]

**Q.** For `COc1cccc(S(=O)(=O)Nc2ccc3c(c2)C(=O)N(C)C[C@H](OC)[C@H](C)CN[C@@H](C)CO3)c1`, which “growth rescue (activation)” value is on record?
**A.** inactive: -9.18%

**Q.** For `CCN(CC)S(=O)(=O)c1ccc2c(c1)nc(SCC(=O)NC1CC1)n2-c1ccccc1OC`, which Potency is on record?
**A.** inconclusive: 35.5 µM [activator, partial curve, poor fit]

**Q.** Which Potency does the source give for `CCCCN(C(=O)CSc1nn(-c2ccc(F)cc2)c(=S)s1)c1c(N)n(CCCC)c(=O)[nH]c1=O` here?
**A.** active: 7.08 µM

**Q.** With `O=C(Nc1ccc(C(F)(F)F)cc1)OC1CCC12CCC(c1ccccc1)CC2` (centres undefined) as the compound, how does the “growth rescue (activation)” value read?
**A.** inactive: -21.5%

**Q.** With `Cc1nc(NC(=O)CN2CCN(c3ccccc3F)CC2)sc1C(=O)N(C)C` as the compound, how does the Potency read?
**A.** inconclusive: 1 µM [activator, full curve]

**Q.** For `COc1ccccc1-c1noc(CCC(=O)N2CCN(c3cc(C)ccc3C)CC2)n1`, which Potency is on record?
**A.** inconclusive: 22.4 µM [activator, single point]

**Q.** Which Potency does the source give for `COc1cc(OC)cc(C(=O)N/N=C/c2ccc(OC)c(COc3ccc4ccccc4c3)c2)c1` here?
**A.** inconclusive: 35.5 µM [activator, partial curve, poor fit]

**Q.** For `Cc1ccc(C)c(N2CCN(C(=O)c3cccn3-c3nnc(N4CCCCC4)s3)CC2)c1`, which Potency is on record?
**A.** inconclusive: 35.5 µM [activator, single point]

**Q.** With `O=C1CC2CCCN2C=C1I` (centres undefined) as the compound, how does the “growth rescue (activation)” value read?
**A.** inactive: 3.68%

**Q.** For `C(=N\NC1=Nc2cccc3cccc1c23)/c1cccnc1`, which Potency is on record?
**A.** inconclusive: 50.1 µM [activator, single point]

**Q.** With `N#Cc1ccccc1Sc1ccccc1C(=O)Nc1ccc2ccccc2c1` as the compound, how does the Potency read?
**A.** inconclusive: 25.1 µM [activator, partial curve]

**Q.** For `CCOC(=O)C1CCN(C(=O)c2ccc3c(c2)NC(=O)/C(=C\c2cccc(C)c2)S3)CC1`, which Potency is on record?
**A.** inconclusive: 10 µM [activator, partial curve, poor fit]
